These results are taken from a collection of fitness landscapes (doi:10.1016/j.celrep.2020.107928).

B1: Caulobacter ParB omega fusion; a variant is named by its letters at X, in order, B8GW30 (parent)
chain: MESVVVGEPGMSEGRRGLGRGLSALLGEVDAAPAQAPGEQLGGSREAPIEILQRNPDQPRRTFREEDLEDLSNSIREKGVLQPILVRPSPDTAGEYQIVAGERAWRAAQRAGLKTVPIMVRELDDLAVLEIGIIENVQRADLNVLEEALSYKVLMEKFERTQENIAQTIGKSXSHVANXMRLLXLPDEVQSYLVSGELTAXHARAIAAAADPVALAKQIIEGGLSVRETEALARKAPNLSAGKSKGGRPPRVKDTDTQALESDLSSVLGLDVSIDHRGSTGTLTITYATLEQLDDLCNRLTRGI

In all, about 81,000 sequences were measured (“one-hybrid fitness for binding parS DNA”: median about -0.17, highest 2% from about 0.51 on). This is one part of the list.

Variants of B1 are the subject of this assay. Nature of the assay: one-hybrid fitness for binding parS DNA (scaled: cognate 1, non-cognate 0); higher = stronger binding. Conditions: with parS DNA site. Summed up: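 Pre- and post-selection plasmids were Illumina-sequenced, three replicate libraries were pooled, and any variant with under 10 reads was removed. The libraries were Caulobacter ParB with four specificity codons randomised, selected in E. coli USO through a HIS3 reporter whose site is 19 bp from the promoter. Cells grew 48 hours at 37°C on M9 without histidine, with 0.1 mM IPTG and 5 mM 3-AT. Fitness is the log change in variant-to-wild-type read ratio, rescaled against cognate and non-cognate.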
ANCL: the “one-hybrid fitness for binding parS DNA” value is ≤ 0.2.

With RVEP, the “one-hybrid fitness for binding parS DNA” value is ≤ 0.2.

Take FMLY: the “one-hybrid fitness for binding parS DNA” value was ≤ 0.2.

As to TEHK, the “one-hybrid fitness for binding parS DNA” value is ≤ 0.2.

Take EDRC: the “one-hybrid fitness for binding parS DNA” value is ≤ 0.2.

As for FYTV, the “one-hybrid fitness for binding parS DNA” value was ≤ 0.2.

Take PQEY: the “one-hybrid fitness for binding parS DNA” value was ≤ 0.2.

As to YCWI, the “one-hybrid fitness for binding parS DNA” value is ≤ 0.2.

As to MLPW, the “one-hybrid fitness for binding parS DNA” value is ≤ 0.2.

With CPSS, the “one-hybrid fitness for binding parS DNA” value is ≤ 0.2.

As to TVTW, the “one-hybrid fitness for binding parS DNA” value is ≤ 0.2.

Regarding HMVS, the “one-hybrid fitness for binding parS DNA” value is ≤ 0.2.

Regarding YRKN, the “one-hybrid fitness for binding parS DNA” value is ≤ 0.2.

Turning to MWVV, the “one-hybrid fitness for binding parS DNA” value is ≤ 0.2.

MTKV: the “one-hybrid fitness for binding parS DNA” value was ≤ 0.2.

Consider ILEC, for which the “one-hybrid fitness for binding parS DNA” value was ≤ 0.2.

As to KRNN, the “one-hybrid fitness for binding parS DNA” value was ≤ 0.2.

In the case of VSTC, the “one-hybrid fitness for binding parS DNA” value is ≤ 0.2.

For the variant SEMV, the “one-hybrid fitness for binding parS DNA” value was ≤ 0.2.

For FCRC, the “one-hybrid fitness for binding parS DNA” value was ≤ 0.2.

For the variant FWVR, the “one-hybrid fitness for binding parS DNA” value was ≤ 0.2.

For the variant HADS, the “one-hybrid fitness for binding parS DNA” value was ≤ 0.2.

For WAAM, the “one-hybrid fitness for binding parS DNA” value is ≤ 0.2.

In the case of MLVC, the “one-hybrid fitness for binding parS DNA” value was ≤ 0.2.

On to YPLD, for which the “one-hybrid fitness for binding parS DNA” value was ≤ 0.2.

For the variant LWTW, the “one-hybrid fitness for binding parS DNA” value is ≤ 0.2.

Take VQSG: the “one-hybrid fitness for binding parS DNA” value was ≤ 0.2.

Consider QEAK, for which the “one-hybrid fitness for binding parS DNA” value was 0.349.

Regarding TSRQ, the “one-hybrid fitness for binding parS DNA” value was ≤ 0.2.

In the case of LKFC, the “one-hybrid fitness for binding parS DNA” value was ≤ 0.2.

As to PCSG, the “one-hybrid fitness for binding parS DNA” value was ≤ 0.2.

Take GGHY: the “one-hybrid fitness for binding parS DNA” value is ≤ 0.2.

In the case of LQCQ, the “one-hybrid fitness for binding parS DNA” value was ≤ 0.2.

With MGRG, the “one-hybrid fitness for binding parS DNA” value is ≤ 0.2.

As for IDVG, the “one-hybrid fitness for binding parS DNA” value is ≤ 0.2.

In the case of HRFI, the “one-hybrid fitness for binding parS DNA” value was ≤ 0.2.

On to HLIS, for which the “one-hybrid fitness for binding parS DNA” value is ≤ 0.2.

As to TGCG, the “one-hybrid fitness for binding parS DNA” value is ≤ 0.2.

For SCGE, the “one-hybrid fitness for binding parS DNA” value was ≤ 0.2.

With VYTY, the “one-hybrid fitness for binding parS DNA” value was ≤ 0.2.

Consider VWLM, for which the “one-hybrid fitness for binding parS DNA” value was ≤ 0.2.

As for SMET, the “one-hybrid fitness for binding parS DNA” value was ≤ 0.2.

For the variant QLIS, the “one-hybrid fitness for binding parS DNA” value was ≤ 0.2.

As to SDGV, the “one-hybrid fitness for binding parS DNA” value was ≤ 0.2.

As to VIIS, the “one-hybrid fitness for binding parS DNA” value was ≤ 0.2.

Take HYQC: the “one-hybrid fitness for binding parS DNA” value is ≤ 0.2.

Take TATH: the “one-hybrid fitness for binding parS DNA” value is ≤ 0.2.

For QHSW, the “one-hybrid fitness for binding parS DNA” value was ≤ 0.2.

Consider SRTC, for which the “one-hybrid fitness for binding parS DNA” value was ≤ 0.2.

On to AHNP, for which the “one-hybrid fitness for binding parS DNA” value is ≤ 0.2.

For WSRF, the “one-hybrid fitness for binding parS DNA” value is ≤ 0.2.

As to QTHR, the “one-hybrid fitness for binding parS DNA” value is ≤ 0.2.

As to GNDT, the “one-hybrid fitness for binding parS DNA” value was ≤ 0.2.

Regarding QRDP, the “one-hybrid fitness for binding parS DNA” value is ≤ 0.2.

On to NVYW, for which the “one-hybrid fitness for binding parS DNA” value was ≤ 0.2.

KFSD: the “one-hybrid fitness for binding parS DNA” value is ≤ 0.2.

QQNE: the “one-hybrid fitness for binding parS DNA” value was ≤ 0.2.

Regarding HLGR, the “one-hybrid fitness for binding parS DNA” value is ≤ 0.2.

For the variant KSKC, the “one-hybrid fitness for binding parS DNA” value is ≤ 0.2.

With LATK, the “one-hybrid fitness for binding parS DNA” value was ≤ 0.2.

Regarding NRSS, the “one-hybrid fitness for binding parS DNA” value is ≤ 0.2.

With IVNV, the “one-hybrid fitness for binding parS DNA” value is ≤ 0.2.

In the case of LESN, the “one-hybrid fitness for binding parS DNA” value was ≤ 0.2.

On to WMKC, for which the “one-hybrid fitness for binding parS DNA” value was ≤ 0.2.

Turning to HAES, the “one-hybrid fitness for binding parS DNA” value was ≤ 0.2.

Take WYQG: the “one-hybrid fitness for binding parS DNA” value is ≤ 0.2.

As for DPHQ, the “one-hybrid fitness for binding parS DNA” value was ≤ 0.2.

On to TFTC, for which the “one-hybrid fitness for binding parS DNA” value is ≤ 0.2.

On to RNEE, for which the “one-hybrid fitness for binding parS DNA” value was ≤ 0.2.

On to PQHL, for which the “one-hybrid fitness for binding parS DNA” value is ≤ 0.2.

Consider EHKL, for which the “one-hybrid fitness for binding parS DNA” value is ≤ 0.2.

Take DAAW: the “one-hybrid fitness for binding parS DNA” value is ≤ 0.2.

On to IEHS, for which the “one-hybrid fitness for binding parS DNA” value was ≤ 0.2.

For VAAP, the “one-hybrid fitness for binding parS DNA” value is ≤ 0.2.

Regarding KWCV, the “one-hybrid fitness for binding parS DNA” value came out at 0.246.

Regarding RWPT, the “one-hybrid fitness for binding parS DNA” value was determined as 0.284.

As to MQRS, the “one-hybrid fitness for binding parS DNA” value is ≤ 0.2.

Regarding QCAR, the “one-hybrid fitness for binding parS DNA” value was ≤ 0.2.

LMLL: the “one-hybrid fitness for binding parS DNA” value was ≤ 0.2.

Consider PMRD, for which the “one-hybrid fitness for binding parS DNA” value was ≤ 0.2.

For the variant DGNC, the “one-hybrid fitness for binding parS DNA” value is ≤ 0.2.

As for AIHH, the “one-hybrid fitness for binding parS DNA” value was ≤ 0.2.

Consider QDCP, for which the “one-hybrid fitness for binding parS DNA” value is ≤ 0.2.

SCEE: the “one-hybrid fitness for binding parS DNA” value was ≤ 0.2.

In the case of HHNY, the “one-hybrid fitness for binding parS DNA” value is ≤ 0.2.

For the variant DLHL, the “one-hybrid fitness for binding parS DNA” value is ≤ 0.2.

With PLGH, the “one-hybrid fitness for binding parS DNA” value was ≤ 0.2.

Turning to DYRY, the “one-hybrid fitness for binding parS DNA” value was ≤ 0.2.

Turning to IGPF, the “one-hybrid fitness for binding parS DNA” value is ≤ 0.2.

Take GEMW: the “one-hybrid fitness for binding parS DNA” value is ≤ 0.2.

As for YRKY, the “one-hybrid fitness for binding parS DNA” value is ≤ 0.2.

For the variant QDVT, the “one-hybrid fitness for binding parS DNA” value was ≤ 0.2.

Regarding LCTK, the “one-hybrid fitness for binding parS DNA” value was ≤ 0.2.

As to RTGR, the “one-hybrid fitness for binding parS DNA” value was ≤ 0.2.

For the variant TAVM, the “one-hybrid fitness for binding parS DNA” value was ≤ 0.2.

On to VMFF, for which the “one-hybrid fitness for binding parS DNA” value was ≤ 0.2.

HYNS: the “one-hybrid fitness for binding parS DNA” value was ≤ 0.2.
